Results taken from PubChem BioAssay AID504466 (National Center for Advancing Translational Sciences (NCATS), 2011).
Among all 330,000 compounds or so, about 4,200 (1.3%) were called active. This list was built around the results that the source calls inconclusive (neither active nor inactive); the mix of calls is not that of the screen. The call rests on the fitted dose curve; in most records, active means well fitted activation curve with a large enough effect; inconclusive means small, poorly fitted or top-dose-only effect; inactive means no such curve, though single readings can be large or run the other way. Where the call is inconclusive, the potency comes from a doubtful curve fit.

Test: qHTS screen for small molecules that induce genotoxicity in human embryonic kidney (HEK293T) cells expressing luciferase-tagged ELG1; further: nearly all actives have a fitted effect of over 60% in size
Conditions: HEK293T ELG1-luciferase reporter, luminescence, 16 h; series mostly up to 46 µM
In short: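 DMSO vehicle served as control against compound-treated ELG1-luciferase HEK293T cells; exposure lasted 16 hr at 37 °C and 5% CO2, followed by ONE-Glo luminescence detection after 30 min.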
Potency means the concentration at half of the fitted maximal effect; tags describe the fitted curve by direction and shape.

Structure (SMILES)	Potency
N/C(=N\OC(=O)c1cccc2ccccc12)c1ccccn1	active: 10.3 µM
O=C(OCc1nnc(-c2ccc([N+](=O)[O-])cc2)o1)C1CC(=O)N(CCc2ccccc2)C1 (stereo unspecified)	inactive
CC(C)C(=O)Nc1ccc(NC(=O)c2cc3ccccc3o2)cc1	inconclusive: 11.6 µM [activator, partial curve]
Cc1nc2ccccn2c1C(=O)Nc1ccc2c(c1)OCCO2	inconclusive: 9.2 µM [activator, partial curve]
CN1CCN(c2ccc(NC(=O)c3ccc4c(c3)OCO4)cc2)CC1	inconclusive: 10.3 µM [activator, single point]
COC(=O)c1cccc(CSc2nnc(C)s2)c1	inconclusive: 32.6 µM [activator, partial curve, poor fit]
O=C(N/N=C/c1cccc(F)c1)c1ccc(Cl)cc1	inconclusive: 13 µM [activator, partial curve]
Cc1ccc(C)c(N=Nc2nc3ccccc3n2C)c1	inconclusive: 2.59 µM [activator, single point]
CCCn1c(N)c(N2CCCCC2)c(=O)n(CC(=O)Nc2ccccc2)c1=O	inconclusive: 20.6 µM [activator, partial curve, poor fit]
CCc1ccc(/C=C2/SC(=S)N(CCC(=O)Nc3cccc(C(=O)O)c3)C2=O)cc1	inconclusive: 23.1 µM [activator, single point]
O=C(CC(SCCO)c1ccc2c(c1)OCO2)c1cccs1 (stereo unspecified)	inconclusive: 16.4 µM [activator, single point]
c1ccc(COc2ccc(CN3CCN(c4ccccn4)CC3)cc2)cc1	active: 20.6 µM
CC1(C)CC(=O)c2sc(NC(=O)c3ccc4ncsc4c3)nc2C1	inconclusive: 20.6 µM [activator, partial curve]
COc1ccc(/C=C2\SC(N3CCCCC3)=NC2=O)cc1OC	inconclusive: 20.6 µM [activator, partial curve, poor fit]
COc1ccc(-n2c(C)cc(/C=C3/SC(=O)N(CC(=O)N4CCOCC4)C3=O)c2C)cc1	inactive
CC(=O)c1ccc(OC(C)c2nc3ccccc3s2)cc1 (stereo unspecified)	inconclusive: 18.3 µM [activator, partial curve]
Cc1ccc(N/C=C2/Sc3ccccc3NC2=O)cc1	inconclusive: 29.1 µM [activator, single point]
N#Cc1ccccc1CSc1ccc(-c2nc3ccccc3[nH]2)cn1	inconclusive: 20.6 µM [activator, partial curve, poor fit]
Cc1oc(-c2cccs2)nc1CNC[C@H]1O[C@@H](n2cnc3c(N)ncnc32)[C@H](O)[C@@H]1O	inactive
Cc1ccc(OCC(=O)NCCCNC(=O)c2ccncc2)cc1	inactive
CCc1ccc(-c2nc(NC(=S)NC(=O)c3cccs3)sc2C)cc1	inactive
COc1ccc(-c2oc3cc(O)c(OC)c(O)c3c(=O)c2OC)cc1	inactive
Cc1cccc(/C=N\NC(=O)c2csnn2)c1	inconclusive: 14.6 µM [activator, single point]
CCN1CCN(CC(=O)N2CCCC(C(=O)c3ccc(Oc4ccccc4)cc3)C2)CC1 (stereo unspecified)	inconclusive: 25.9 µM [activator, single point]

Structure (SMILES)	Potency
CC(C)(C)c1cc(NC(=O)c2cccc([N+](=O)[O-])c2)no1	inconclusive: 4.61 µM [activator, partial curve]
Cc1nc2ccc(NC(=O)N(C(C)C)C(C)C)cc2s1	inconclusive: 18.4 µM [activator, partial curve]
CCC(COC)Oc1cc(NCc2ccccc2)c2ncn(C(C)C)c2c1 (stereo unspecified)	inactive
C/C(=N\N=C\c1ccccc1F)c1nnn(-c2nonc2N)c1C	inconclusive: 18.4 µM [activator, partial curve, poor fit]
CCOC(=O)c1sc(NC(=O)c2ccc3nc[nH]c3c2)nc1C	inconclusive: 35.5 µM [activator, partial curve, poor fit]
CC(=O)Nc1cccc(NC(=O)c2ccco2)c1	inactive
Nc1ccccc1C#Cc1ccccc1	inconclusive: 8.2 µM [activator, partial curve]
O=C(Cc1cccc2ccccc12)Nc1ccccc1C(=O)O	inconclusive: 8.2 µM [activator, partial curve, poor fit]
COC(=O)c1ccc(-n2c(C)cc(-c3csc(NC(=O)c4ccc(S(=O)(=O)N(C)C)cc4)n3)c2C)cc1	inactive
O=C(c1ccc(Br)o1)N1CCN(Cc2ccccc2Cl)CC1	inactive
O=C(c1ccncc1)N1CCCC(N2CCN(c3ccc(F)cc3)CC2)C1 (stereo unspecified)	inconclusive: 10.3 µM [activator, partial curve, poor fit]
O=C(Nc1cccnc1)c1noc2c1CCCCC2	active: 2.31 µM
CC(C)CN1C(=O)C(=O)N(CC(=O)c2ccc3c(c2)OCO3)C1=O	inconclusive: 14.6 µM [activator, partial curve, poor fit]
COc1cc(-c2noc(C)c2/C=C/c2cccc([N+](=O)[O-])c2)cc(OC)c1OC	inactive
O=C(c1cc([N+](=O)[O-])ccc1Cl)N1c2ccccc2Sc2ccccc21	inactive
COC(=O)c1ccsc1NC(=O)CCc1ccccc1	inconclusive: 20.6 µM [activator, partial curve, poor fit]
Cc1ccc(/C(N)=N/OC(=O)Cc2ccccc2)cc1	inconclusive: 18.4 µM [activator, partial curve, poor fit]
C/C(=N\NC(=O)c1ccc(-n2cnnn2)cc1)c1ccc(Cl)cc1	inactive
O=C(OCC(=O)N1CCOCC1)c1ccccc1Br	inconclusive: 20.6 µM [activator, partial curve, poor fit]
CCOc1ccc(-n2c(-c3ccc(OC)cc3)c[n+]3c2CCCCC3)cc1	inactive
CC(NC(=O)CCc1nnc(-c2ccc(-c3ccccc3)cc2)o1)c1nccs1 (stereo unspecified)	inactive
C=CCN(c1ccc(C(=O)Nc2ccc3c(c2)n(C)c(=O)n3C)cc1)S(C)(=O)=O	inconclusive: 20.6 µM [activator, single point]
Cc1cccn2cc(COc3cccc([N+](=O)[O-])c3)nc12	inactive
COc1ccc(C(=O)Nc2cccc(C(=O)N3CCCC3)c2)cc1	inconclusive: 20.6 µM [activator, partial curve, poor fit]

Structure (SMILES)	Potency
COc1ccc(CNC(=O)N[C@@H](CC(C)C)C(=O)O)cc1OC	inactive
CC(C)Nc1nc(Cl)nc(Nc2ccccc2)n1	inconclusive: 20.6 µM [activator, partial curve, poor fit]
O=C(c1cc(-c2cccc(O)c2)on1)N1CCc2ccccc2C1	inconclusive: 23.1 µM [activator, single point]
Cc1cc(C(=O)COc2cccc([N+](=O)[O-])c2)c(C)n1C1CC1	inconclusive: 5.8 µM [activator, full curve, poor fit]
O=C1C(c2ccccc2)=[N+]([O-])c2ccccc21	inconclusive: 32.6 µM [activator, partial curve, poor fit]
NC(=O)c1cccnc1Nc1ccccc1F	inconclusive: 25.9 µM [activator, single point]
Cc1ccc2nc(C)/c(=N\O)c(C)nc2c1	inconclusive: 16.4 µM [activator, single point]
COc1cccc(/C=N\NC(=O)c2sc(N)nc2C)c1OC	inconclusive: 14.1 µM [activator, single point]
O=C(Nc1nc2cc3c(cc2s1)OCCO3)c1cccc(N2C(=O)CCC2=O)c1	inactive
CCOC(=O)NC(=O)CSc1nc(-c2ccc(C)c(C)c2)cn1-c1ccccc1	inconclusive: 6.51 µM [activator, full curve, poor fit]
COC(=O)c1ccccc1NC(=O)Nc1cc(C(C)(C)C)on1	active: 16.4 µM
COc1ccc(C2=NN3C(C2)c2ccccc2OC32C(=O)N(C)c3ccccc32)cc1 (stereo unspecified)	active: 14.6 µM
CCCCCOc1ccc(NC(=O)C(=O)NCC2CCCN2CC)cc1 (stereo unspecified)	inactive
O=C(NCc1ccccc1)c1cccc(COc2cc(Cl)ccc2Cl)c1	inconclusive: 13 µM [activator, partial curve, poor fit]
Cc1nc(Nc2ccccc2)sc1C(=O)Nc1ccccc1	inconclusive: 16.4 µM [activator, partial curve, poor fit]
Cc1cccc(NC(=S)NC(=O)/C=C/c2ccco2)c1	inconclusive: 29.1 µM [activator, partial curve, poor fit]
N/C(=N\c1nc2c(c(=O)[nH]1)CCCC2)Nc1ccccc1Sc1ccccc1	inconclusive: 17.8 µM [activator, single point]
CCOc1ccc(/C=N/NC(=O)Cc2cccs2)cc1	inconclusive: 20.6 µM [activator, single point]
O=C(NNc1nc(-c2ccc(Br)cc2)cs1)c1ccco1	inconclusive: 14.6 µM [activator, partial curve, poor fit]
Cc1cc(C)c(C(=O)COC(=O)Cn2c(C)csc2=O)cc1C	inactive
COC(=O)Cc1ccc2sc(-c3ccccc3)nc2c1	active: 2.59 µM
CC/C(C)=N/Nc1nc(-c2cc3cccc(OC)c3oc2=O)cs1	inconclusive: 2.59 µM [activator, full curve]
CC1OC(Nc2ccc(N=Nc3ccccc3)cc2)C(O)C(O)C1O (stereo unspecified)	inconclusive: 20.6 µM [activator, partial curve, poor fit]
